Hit rate of the full screen: of about 150,000 compounds, about 540 (0.36%) showed an effect of 50% or more. Some of the results follow.
The compounds below were run on Plasmodium falciparum (assay: Primary screen in NF54 nanoGlo assay, in single point, at 2uM, 72h; a lower Z score goes with more inhibition). Details: timepoint 72 hour.
Assay type: functional, Erythrocyte

Structure (SMILES) | % Inhibition [%] | Z score
Cc1cc2c(cc1C)N(CC(=O)N1CCC(Cc3ccccc3)CC1)C(=O)CC(c1cccs1)=N2 | -11 | 1.22
Cc1nn(CC(=O)NCCC2=CCCCC2)c(=O)n1C | -3 | 0.39
C[C@@]12CCCN1C(=O)[C@@H](c1ccc(O)cc1)NC2=O | -10 | 1.62
COc1ccc(-c2n[nH]c3c2C(=O)C[C@@H](c2ccccc2)C3)cc1 | -5 | 0.48
CO[C@H]1CCN(C(=O)c2ccc3ncccc3c2)C1 | -19 | 1.89
COCCc1noc(-c2cnc3nc(C)ccc3c2NCc2ccco2)n1 | -18 | 2.21
Cn1ccnc(Nc2cccc(NC3CCCC3)c2)c1=O | -8 | 1.15
c1cncc(CN(Cc2ccc3c(c2)OCO3)Cc2ccc([C@@H]3CCCO3)s2)c1 | -2 | 0.32
C[C@H]1CN(C)CCN1CC1CCN(C(=O)Nc2cccs2)CC1 | -2 | 0.44
Cc1ccc(-c2noc(C3CCN(C(=O)OC(C)(C)C)CC3)n2)cc1C | 30 | -3.35
O=C(CCc1ccc2c(c1)CN(C(=O)c1ccco1)CCO2)N1CCOCC1 | 8 | -0.97
CCOc1nccn2c(CNC(=O)c3c(F)cccc3F)nnc12 | 14 | -1.78
Cc1ccc(CN2CCCn3nc(C(=O)NC4CCCCCC4)cc3C2=O)cc1 | -4 | 0.79
Cc1cc(CNC(=O)Cc2cccnc2)ccc1N(C)C | -7 | 0.87
O=C(CCc1ccccc1)Nc1c(C(=O)c2ccc3c(c2)OCO3)oc2ccccc12 | -1 | 0.17
Cn1nc(NC(=O)NC[C@@H]2CCC[C@H]2O)cc1OC(F)F | -5 | 0.63
C[C@H]1CCC(=O)N1c1cccc(NC(=O)c2cncs2)c1 | -18 | 1.63
Cn1ccc(CNC(=O)N2CCC[C@]2(C)Cc2ccc(OC(F)(F)F)cc2)n1 | -8 | 1.68
CC(C)c1ocnc1C(=O)NC[C@H]1[C@H](c2ccccc2)C1(F)F | -3 | 0.47
CC(=O)c1c[nH]c(C(=O)N2CCCN(C(=O)c3ccc(F)cc3)CC2)c1 | -6 | 0.83
COC(=O)C[C@H]1CCCN(CC(=O)N(C)Cc2ccc(F)cc2)CC1 | -5 | 0.93
CN(C)c1ccnc(NC(=O)Cc2ccc(O)cc2)c1 | 3 | -0.53
O=C(NCCCCNc1ccccn1)c1ccc2c(c1)OCCO2 | -9 | 1.57
O=C1CCN(c2ccnc(C(=O)NCc3ccc(F)cc3)c2)CCN1 | 6 | -1.01
Cc1ccc(CN(C)C(=O)c2scnc2C)o1 | -7 | 1.13
O=C(COc1ncccn1)NCCc1ccccc1 | 2 | -0.38
Cc1ccc(C(=O)N[C@H]2CCCOc3c2ccc2ccccc32)c(=O)[nH]1 | -11 | 1.39

Structure (SMILES) | % Inhibition [%] | Z score
O=C(Cc1ccncc1)N1CCC(N2CCc3ccccc3C2)CC1 | -8 | 1.22
O=C(COc1ccc(F)cc1)N[C@H]1CCN(Cc2cscn2)C[C@@H]1O | -12 | 2.02
COCCCn1c(C)cc(C(=O)N2CCCn3nc(-c4cccc(F)c4)cc3C2)c1C | -7 | 0.61
CC(C)[C@H](Nc1nccc(C(F)(F)F)n1)C(N)=O | -5 | 0.79
O=C(Nc1ccc2[nH]c(=O)[nH]c2c1)c1cc2c(s1)CCCCC2 | -10 | 0.92
CC(O)c1cccc(NC(=O)c2cnn3c2N[C@@H](c2ccccc2)C[C@H]3C(F)(F)F)c1 (stereo partly drawn) | -14 | 2.46
CCCCN(C(=O)Nc1nc2ccccc2s1)C1CC1 | -5 | 0.64
Cc1cc(C(=O)N2CC[C@H](C(F)(F)F)C2)c(C)n1-c1ccon1 | -2 | 0.24
CO[C@H]1COCC[C@@H]1NC(=O)C(C)(C)Oc1cc(C)ccc1C(C)C | -13 | 1.32
COc1cc(-n2cnnn2)ccc1NC(=O)c1cnc(C)cn1 | 5 | -0.84
Cc1ccc(-c2nn(-c3ccccc3)cc2C(=O)N2CCCc3ccccc32)o1 | -4 | 0.63
COc1cc2c(cc1OC)CN(C(=O)CN(C)CC(=O)Nc1ccc(C)cn1)CC2 | -4 | 0.66
Cn1cncc1[C@H]1[C@H](NC(=O)Cn2cccn2)CCC(=O)N1C1CC1 | -1 | 0.22
COc1cc2c(cc1OC)CN(C(=O)c1c[nH]c(=O)n(C)c1=O)CC2 | 4 | -0.77
COC(=O)[C@@H]1CCCCN1Cc1nc(C(F)(F)F)cs1 | 7 | -1.16
C#CCCC1(CCC(=O)N2CCOc3c(C)cc(C)cc32)N=N1 | -12 | 1.44
O=S(=O)(NCCNc1ccc(Nc2ccncc2)nn1)c1ccccc1 | 6 | -0.82
CCc1ccc(CNC(=O)c2cc3cn(C4CCCC4)cc3s2)cc1 | -15 | 1.9
O=C(c1cc2ccccc2[nH]1)N1CC[C@H](Oc2cccnn2)C1 | -19 | 2.13
COCC(=O)N1CCN(c2cc3c(nn2)CCCC3)CC1 | -5 | 0.91
CCC(CC)C(=O)N1CCN(c2nc3cccnc3n(C)c2=O)CC1 | -13 | 1.62
C[C@H](NS(C)(=O)=O)c1nnc(N2CCCC2)n1Cc1ccccc1 | -5 | 0.86
Cc1ccc2c(c1)CCCN2C(=O)Cn1cnc2ccccc2c1=O | -5 | 0.7
N#CCCN(CCC#N)C(=O)c1cc(Cl)c[nH]1 | -15 | 1.37
Cn1nccc1[C@@H]1CCCN1C(=O)c1cc2c(=O)[nH]cnc2cn1 | -1 | 0.09
O=C(COC(=O)c1ccc(S(=O)(=O)N2CCCCC2)cc1)NCC1CCCCC1 | -14 | 1.42
C[C@H]1CCCCN1C(=O)NCCc1cnoc1 | 0 | 0.01

From ChEMBL document CHEMBL4888484, “Replenishing the malaria drug discovery pipeline: Screening and hit evaluation of the MMV Hit Generation Library 1 (HGL1) against asexual blood stage Plasmodium falciparum ,using a nano luciferase reporter read-out” (2022)
